The campaign covered roughly 39,000 compounds. About 220 (0.56%) showed activity. This is one part of the list.
Tested on: Escherichia coli K-12 BW25113
Assay: relative growth (OD600 normalised to plate interquartile mean) (fraction); higher = less growth inhibition, active = 0.2 or less
Conditions: 50 µM; LB; incubation time: overnight (16-24 h)
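Also: static incubation at 37 °C against the wild-type strain, values averaged over two biological replicates.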

SMILES | relative growth
Nc1cccc(O)c1 | inactive: 0.972
O=C(C[C@H]1CC[C@@H](NS(=O)(=O)c2ccccc2F)[C@@H](CO)O1)NCCCN1CCOCC1 | inactive: 0.989
C[C@@H]1CN([C@H](C)CO)C(=O)c2cccc(NC(=O)c3nc4ccccc4s3)c2O[C@@H]1CN(C)Cc1ccc(Oc2ccccc2)cc1 | inactive: 0.988
C[C@H](CO)N1C[C@H](C)[C@@H](CN(C)Cc2ccc(C(F)(F)F)cc2)Oc2c(NS(=O)(=O)c3ccc(Cl)cc3)cccc2C1=O | inactive: 1
O=C(C[C@@H]1CC[C@H](NC(=O)CN2CCOCC2)[C@H](CO)O1)NCc1cccc(F)c1 | inactive: 0.986
O=C(C[C@H]1CC[C@@H]2[C@H](COC[C@@H](O)CN2C(=O)Nc2ccc(F)cc2)O1)NCCCN1CCOCC1 | inactive: 0.972
COc1ccc(CN(C)C[C@@H]2Oc3ccc(NC(=O)CCCCCC(=O)Nc4ccccc4N)cc3CC(=O)N([C@H](C)CO)C[C@@H]2C)cc1 | inactive: 1
NS(=O)(=O)c1cc2c(cc1Cl)NCNS2(=O)=O | inactive: 1.03
COc1ccc(S(=O)(=O)N(C)C[C@@H]2OCCCC[C@@H](C)Oc3ccc(NS(=O)(=O)c4ccc(Cl)cc4)cc3C(=O)N([C@H](C)CO)C[C@@H]2C)cc1 | inactive: 1.04
COCC(=O)Nc1ccc2c(c1)C(=O)N(C)C[C@@H](OC)[C@@H](C)CN(C(=O)Cc1ccccn1)[C@H](C)CO2 | inactive: 1
C=CCC[C@@H](Cc1ccc(F)cc1)C(=O)OC[C@@H](Cc1c[nH]c2ccccc12)NC(=O)[C@@H](CC=C)CC(=O)N[C@@H](CO)Cc1ccccc1 | inactive: 1.01
CC(C)NC(=O)N(C)C[C@@H]1OCCCC[C@H](C)Oc2ccc(NC(=O)Nc3ccc(F)cc3)cc2C(=O)N([C@@H](C)CO)C[C@@H]1C | inactive: 1.02
C/C=C/c1cnc2c(c1)C(=O)N([C@@H](C)CO)C[C@@H](C)[C@H](CN(C)S(=O)(=O)c1ccc(OC)cc1)O2 | inactive: 1.01
COc1ccc(NC(=O)N2C[C@@H](O)COC[C@@H]3O[C@@H](CC(=O)NCc4ccccc4OC)CC[C@H]32)cc1 | inactive: 0.991
COc1ccc2c3c([nH]c2c1)[C@@H](CO)N(Cc1cc(ccc1F)F)C[C@]13CCN(CC1)C(=O)CN(C)C | inactive: 0.976
Cc1noc(C)c1S(=O)(=O)N(C)C[C@@H]1Oc2ccc(NC(=O)Nc3ccc4c(c3)OCO4)cc2CC(=O)N([C@H](C)CO)C[C@H]1C | inactive: 0.993
C[C@H]1CN([C@@H](C)CO)C(=O)c2cc(N(C)C)ccc2O[C@H]1CN(C)S(=O)(=O)c1ccc(Cl)cc1 | inactive: 0.995
COc1ccc(CN(C)C[C@@H]2Oc3ccc(NS(C)(=O)=O)cc3C(=O)N([C@H](C)CO)C[C@H]2C)cc1 | inactive: 1.04
O=C(NCC(=O)N1CCOCC1)c1ccccc1 | inactive: 0.937
Nn1c(CO)nc2ccccc21 | inactive: 1.02
C[C@@H]1CN([C@H](C)CO)C(=O)c2cc(NC(=O)Nc3ccc(C(F)(F)F)cc3)ccc2O[C@@H]1CN(C)Cc1ccc(C(F)(F)F)cc1 | inactive: 1.03

SMILES | relative growth
O=C(C[C@@H]1C=C[C@@H](NC(=O)c2ccc3c(c2)OCO3)[C@@H](CO)O1)NCc1ccc(Oc2ccccc2)cc1 | inactive: 1.01
O=C(C[C@@H]1C[C@@H]2c3cc(NC(=O)Cc4ccncc4)ccc3O[C@@H]2[C@H](CO)O1)NCc1cccc(F)c1 | inactive: 0.993
C[C@@H]1CN([C@@H](C)CO)C(=O)Cc2cc(NC(=O)Nc3ccc(C(F)(F)F)cc3)ccc2O[C@@H]1CN(C)C(=O)Nc1ccc(C(F)(F)F)cc1 | inactive: 1.02
CC[C@@]1(C)CC(=O)NC1=O | inactive: 0.991
COc1cccc(C#Cc2ccc3c(c2)O[C@@H](CN(C)C(=O)c2ccccn2)[C@@H](C)CN([C@H](C)CO)S3(=O)=O)c1 | inactive: 0.974
CCS(=O)(=O)N1C[C@]2(CN(Cc3cc(ccc3F)F)C2)c2c(n(c3cc(ccc23)OC)C)[C@H]1CO | inactive: 0.988
C[C@H](CO)N1C[C@H](C)[C@@H](CN(C)C(=O)NC2CCCCC2)Oc2c(NC(=O)C3CC3)cccc2C1=O | inactive: 1.01
C[C@H]1CCCCO[C@H](CN(C)Cc2ccncc2)[C@@H](C)CN([C@@H](C)CO)C(=O)c2cc(NS(=O)(=O)c3ccc(Cl)cc3)ccc2O1 | inactive: 0.99
Cc1cc(=O)nc(-n2ncc(C#N)c2N)[nH]1 | inactive: 1.01
NC(=O)CSc1nnnn1-c1cccc(O)c1 | inactive: 0.984
C[C@]12NC(=O)N[C@H](c3ccccc3O1)[C@H]2CO | inactive: 1.03
Cn1cnc(=N)c2[nH]cnc21 | inactive: 0.995
CO[C@H]1CN(C)C(=O)c2ccc(NC(=O)NC(C)C)cc2OC[C@H](C)N(Cc2ccc(-c3ccccn3)cc2)C[C@H]1C | inactive: 0.999
CCS(=O)(=O)N1CC[C@]2(CC1)CN([C@@H](CO)c1c2c2ccc(cc2n1C)OC)C(=O)c1cccc(c1)F | inactive: 1
CCc1cccc(NC(=O)O[C@H]2[C@H](OC(=O)Nc3ccccc3-c3ccccc3)[C@H](OC(=O)Nc3ccccc3-c3ccccc3)[C@@H](OC)O[C@@H]2CO)c1 | inactive: 1.02
C[C@H]1CCCCO[C@@H](CN(C)Cc2ccc(C(=O)O)cc2)[C@@H](C)CN([C@@H](C)CO)C(=O)c2cc(NC(=O)C3CCCCC3)ccc2O1 | inactive: 0.992
Cc1nc(N(C)C)ncc1C(=O)O | inactive: 1.01
Cc1ccc(S(=O)(=O)N[C@@H](Cc2ccccc2)C(=O)NCCn2cc(CCC(=O)NO)nn2)cc1 | inactive: 0.999
C[C@H](CO)N1C[C@H](C)[C@@H](CN(C)Cc2ccncc2)Oc2ccc(NS(=O)(=O)c3cccs3)cc2C1=O | inactive: 0.989
O=C1[C@H](Cc2ccc(C(F)(F)F)cc2)CCn2cc(nn2)COC[C@@H]2CCCCN2C(=O)[C@H](Cc2ccc(C(F)(F)F)cc2)CCn2cc(nn2)COC[C@@H]2CCCCN12 | inactive: 0.996
COc1ccc(NC(=O)N(C)C[C@H]2Oc3ccc(NS(=O)(=O)c4cn(C)cn4)cc3C(=O)N([C@@H](C)CO)C[C@H]2C)cc1 | inactive: 0.956

SMILES | relative growth
COc1ccc(CN(C)C[C@@H]2OCCCC[C@@H](C)Oc3ccc(NS(=O)(=O)c4ccc(C)cc4)cc3C(=O)N([C@@H](C)CO)C[C@H]2C)cc1 | inactive: 0.999
C[C@H]1CN([C@@H](C)CO)C(=O)c2cccc(NC(=O)c3ccncc3)c2O[C@H]1CN(C)S(=O)(=O)c1ccc(F)cc1 | inactive: 1
C[C@H](CO)N1C[C@H](C)[C@@H](CN(C)S(=O)(=O)c2cn(C)cn2)Oc2ncc(/C=C/c3ccccc3)cc2C1=O | inactive: 1.03
CO[C@@H](CN(C)C(=O)c1ccc2c(c1)OCO2)[C@@H](C)CN([C@H](C)CO)S(=O)(=O)c1ccc(F)cc1 | inactive: 0.946
Cc1ccc(S(=O)(=O)N[C@@H](Cc2ccccc2)C(=O)NCCn2cc(CN3C(=O)COC[C@H]3c3ccccc3)nn2)cc1 | inactive: 0.986
COc1ccc2c3c([nH]c2c1)[C@H](CO)N(C[C@]13CCN(CC1)C(=O)Nc1ccc(cc1)F)C(=O)c1ccc(cc1)F | inactive: 0.984
C[C@@H]1CN([C@@H](C)CO)C(=O)Cc2cc(NS(C)(=O)=O)ccc2O[C@@H]1CN(C)Cc1ccc(C(F)(F)F)cc1 | inactive: 1.02
C[C@@H]1CN([C@H](C)CO)C(=O)c2ccccc2-c2ccccc2CO[C@@H]1CN(C)Cc1ccc(Oc2ccccc2)cc1 | inactive: 0.997
C[C@@H](O)C#Cc1ccc2c(c1)O[C@H](CN(C)C(=O)c1ccccc1)[C@@H](C)CN([C@@H](C)CO)S2(=O)=O | inactive: 1
C[C@@H]1CCCCO[C@H](CN(C)S(=O)(=O)c2ccc(F)cc2)[C@@H](C)CN([C@@H](C)CO)C(=O)c2cc(NC(=O)C3CCCCC3)ccc2O1 | inactive: 1.02
COc1ccc(Cn2cc[nH]c(=O)c2=O)cc1 | inactive: 0.996
CC(C)NC(=O)Nc1ccc2c(c1)C(=O)N([C@@H](C)CO)C[C@@H](C)[C@@H](CN(C)C(=O)Nc1ccc3c(c1)OCO3)O2 | inactive: 0.991
C[C@@H]1CCCCO[C@H](CN(C)Cc2ccc(Cl)c(Cl)c2)[C@H](C)CN([C@@H](C)CO)C(=O)c2cc(NC(=O)Nc3ccc4c(c3)OCO4)ccc2O1 | inactive: 0.997
CN1C[C@@H](CO)Oc2ccccc21 | inactive: 1.02
COc1ccc2c(c1)OCC(=Cc1ccc(OC)c(O)c1)C2=O | inactive: 1.05
CC(NC(=NC#N)Nc1ccncc1)C(C)(C)C (stereo not drawn) | inactive: 1.1
C[C@@H]1CN([C@H](C)CO)C(=O)c2cc(NC(=O)c3ccncc3)ccc2O[C@@H](C)CCCCO[C@H]1CN(C)C(=O)Nc1cccc2ccccc12 | inactive: 1.02
C[C@@H]1CN([C@H](C)CO)C(=O)CCCn2cc(nn2)CO[C@H]1CN(C)C(=O)Nc1ccc2c(c1)OCCO2 | inactive: 1
Cc1noc(C)c1S(=O)(=O)Nc1ccc2c(c1)C(=O)N([C@@H](C)CO)C[C@@H](C)[C@H](CN(C)S(=O)(=O)c1cn(C)cn1)OCCCC[C@H](C)O2 | inactive: 0.994
Cc1noc(C)c1S(=O)(=O)N(C)C[C@@H]1OCCCC[C@H](C)Oc2ccc(NC(=O)Nc3cccc4ccccc34)cc2C(=O)N([C@H](C)CO)C[C@@H]1C | inactive: 1.04
C[C@@H]1CN([C@H](C)CO)C(=O)Cc2cc(NS(=O)(=O)c3ccc(Cl)cc3)ccc2O[C@H]1CN(C)Cc1ccc(C(F)(F)F)cc1 | inactive: 0.959
